{
  "source": "the supplement of paper PMC8728848",
  "binders": {"B1": {"name": "Gal 3 (Homo sapiens), P17931 (protein)", "chain": "MADNFSLHDALSGSGNPNPQGWPGAWGNQPAGAGGYPGASYPGAYPGQAPPGAYPGQAPPGAYHGAPGAYPGAPAPGVYPGPPSGPGAYPSSGQPSAPGAYPATGPYGAPAGPLIVPYNLPLPGGVVPRMLITILGTVKPNANILDFQRGNDVAFHFNPRFNENNRRVIVCNTLLDNNWGREERQSVFPFESGKPFKIQVLVEPDHFKVAVNDAHLLQYNHRVKKLNEISKLGISGDIDLTSASYTMI"}},
  "assay_in_all_cases": "glycan array binding signal (z-score within array); higher = stronger binding",
  "conditions_in_all_cases": "glycan notation: IUPAC condensed, linker removed; mutation: K176L",
  "key": {"[1]": {"molecular_target": "Gal(b1-3)GlcNAc(b1-2)Man(a1-3)[Gal(b1-3)GlcNAc(b1-2)Man(a1-6)]Man(b1-4)GlcNAc(b1-4)[Fuc(a1-6)]GlcNAc", "outline": "(§1)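 Columns mapping to the same glycan were averaged after glycan names were converted to IUPAC-condensed notation. The data come from 3228 arrays in the Consortium for Functional Glycomics database, limited to those with an available protein sequence. Binding is reported as a within-array Z-score averaged across arrays of one protein sequence and across linkers.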"}, "[2]": {"molecular_target": "Gal(b1-3)GlcNAc(b1-3)Gal(b1-3)GlcNAc", "outline": "as §1"}, "[3]": {"molecular_target": "Gal(b1-3)GlcNAc(b1-3)Gal(b1-4)Glc", "outline": "as §1"}, "[4]": {"molecular_target": "Gal(b1-3)GlcNAc(b1-3)Gal(b1-4)GlcNAc", "outline": "as §1"}, "[5]": {"molecular_target": "Gal(b1-3)GlcNAc(b1-3)Gal(b1-4)GlcNAc(b1-6)[Gal(b1-3)GlcNAc(b1-3)]Gal(b1-4)Glc", "outline": "as §1"}, "[6]": {"molecular_target": "Gal(b1-3)GlcNAc(b1-3)Gal(b1-4)[Fuc(a1-3)]GlcNAc(b1-6)[Gal(b1-3)GlcNAc(b1-3)]Gal(b1-4)Glc", "outline": "as §1"}, "[7]": {"molecular_target": "Gal(b1-3)GlcNAc(b1-3)GalNAc", "outline": "as §1"}, "[8]": {"molecular_target": "Gal(b1-3)GlcNAc(b1-6)Gal(b1-4)GlcNAc", "outline": "as §1"}, "[9]": {"molecular_target": "Gal(b1-3)[Fuc(a1-4)]GlcNAc", "outline": "as §1"}, "[10]": {"molecular_target": "Gal(b1-3)[Fuc(a1-4)]GlcNAc(b1-2)Man(a1-3)[Gal(b1-3)[Fuc(a1-4)]GlcNAc(b1-2)Man(a1-6)]Man(b1-4)GlcNAc(b1-4)GlcNAc", "outline": "as §1"}, "[11]": {"molecular_target": "Gal(b1-3)[Fuc(a1-4)]GlcNAc(b1-2)Man(a1-3)[Gal(b1-3)[Fuc(a1-4)]GlcNAc(b1-2)Man(a1-6)]Man(b1-4)GlcNAc(b1-4)[Fuc(a1-6)]GlcNAc", "outline": "as §1"}, "[12]": {"molecular_target": "Gal(b1-3)[Fuc(a1-4)]GlcNAc(b1-3)Gal(b1-3)[Fuc(a1-4)]GlcNAc", "outline": "as §1"}, "[13]": {"molecular_target": "Gal(b1-3)[Fuc(a1-4)]GlcNAc(b1-3)Gal(b1-4)GlcNAc", "outline": "as §1"}, "[14]": {"molecular_target": "Gal(b1-3)[Fuc(a1-4)]GlcNAc(b1-3)Gal(b1-4)[Fuc(a1-3)]GlcNAc", "outline": "as §1"}, "[15]": {"molecular_target": "Gal(b1-3)[GlcNAc(b1-6)]GalNAc", "outline": "as §1"}, "[16]": {"molecular_target": "Gal(b1-3)[Neu5Ac(a2-6)]GalNAc", "outline": "as §1"}, "[17]": {"molecular_target": "Gal(b1-3)[Neu5Ac(a2-6)]GlcNAc(b1-6)Gal(b1-4)Glc", "outline": "as §1"}, "[18]": {"molecular_target": "Gal(b1-3)[Neu5Ac(b2-6)]GalNAc", "outline": "as §1"}, "[19]": {"molecular_target": "Gal(b1-4)GalNAc(a1-3)[Fuc(a1-2)]Gal(b1-4)GlcNAc", "outline": "as §1"}, "[20]": {"molecular_target": "Gal(b1-4)GalNAc(b1-3)[Fuc(a1-2)]Gal(b1-4)GlcNAc", "outline": "as §1"}, "Gal(b1-4)Glc": {"molecular_target": "Gal(b1-4)Glc", "outline": "as §1"}, "Gal(b1-4)Glc6S": {"molecular_target": "Gal(b1-4)Glc6S", "outline": "as §1"}, "Gal(b1-4)GlcNAc": {"molecular_target": "Gal(b1-4)GlcNAc", "outline": "as §1"}, "[21]": {"molecular_target": "Gal(b1-4)GlcNAc(a1-6)Gal(b1-4)GlcNAc", "outline": "as §1"}, "[22]": {"molecular_target": "Gal(b1-4)GlcNAc(b1-2)Man(a1-3)Man(b1-4)GlcNAc(b1-4)GlcNAc", "outline": "as §1"}, "[23]": {"molecular_target": "Gal(b1-4)GlcNAc(b1-2)Man(a1-3)[Gal(b1-4)GlcNAc(b1-2)Man(a1-6)]Man(b1-4)GlcNAc(b1-4)GlcNAc", "outline": "as §1"}, "[24]": {"molecular_target": "Gal(b1-4)GlcNAc(b1-2)Man(a1-3)[Gal(b1-4)GlcNAc(b1-2)Man(a1-6)]Man(b1-4)GlcNAc(b1-4)[Fuc(a1-6)]GlcNAc", "outline": "as §1"}, "[25]": {"molecular_target": "Gal(b1-4)GlcNAc(b1-2)Man(a1-3)[GlcNAc(b1-2)Man(a1-6)]Man(b1-4)GlcNAc(b1-4)GlcNAc", "outline": "as §1"}, "[26]": {"molecular_target": "Gal(b1-4)GlcNAc(b1-2)Man(a1-3)[Man(a1-6)]Man(b1-4)GlcNAc(b1-4)GlcNAc", "outline": "as §1"}, "[27]": {"molecular_target": "Gal(b1-4)GlcNAc(b1-2)Man(a1-6)Man(b1-4)GlcNAc(b1-4)GlcNAc", "outline": "as §1"}, "[28]": {"molecular_target": "Gal(b1-4)GlcNAc(b1-2)Man(a1-6)[GlcNAc(b1-2)Man(a1-3)]Man(b1-4)GlcNAc(b1-4)GlcNAc", "outline": "as §1"}, "[29]": {"molecular_target": "Gal(b1-4)GlcNAc(b1-2)Man(a1-6)[Man(a1-3)]Man(b1-4)GlcNAc(b1-4)GlcNAc", "outline": "as §1"}, "[30]": {"molecular_target": "Gal(b1-4)GlcNAc(b1-2)[Gal(b1-4)GlcNAc(b1-4)]Man(a1-3)[Gal(b1-4)GlcNAc(b1-2)Man(a1-6)]Man(b1-4)GlcNAc(b1-4)GlcNAc", "outline": "as §1"}, "[31]": {"molecular_target": "Gal(b1-4)GlcNAc(b1-2)[Gal(b1-4)GlcNAc(b1-4)]Man(a1-3)[Gal(b1-4)GlcNAc(b1-2)[Gal(b1-4)GlcNAc(b1-6)]Man(a1-6)]Man(b1-4)GlcNAc(b1-4)GlcNAc", "outline": "as §1"}, "[32]": {"molecular_target": "Gal(b1-4)GlcNAc(b1-3)Gal(b1-3)GlcNAc", "outline": "as §1"}, "[33]": {"molecular_target": "Gal(b1-4)GlcNAc(b1-3)Gal(b1-4)Glc", "outline": "as §1"}, "[34]": {"molecular_target": "Gal(b1-4)GlcNAc(b1-3)Gal(b1-4)GlcNAc", "outline": "as §1"}, "[35]": {"molecular_target": "Gal(b1-4)GlcNAc(b1-3)Gal(b1-4)GlcNAc(b1-3)Gal(b1-4)GlcNAc", "outline": "as §1"}},
  "note": "The list shows a part of the results.",
  "data": [
    {"binder": "B1", "values": [
      {"measurement": "glycan array binding signal (z-score)", "setting": "[1]", "result": -0.271},
      {"measurement": "glycan array binding signal (z-score)", "setting": "[2]", "result": 0.57},
      {"measurement": "glycan array binding signal (z-score)", "setting": "[3]", "result": 0.004},
      {"measurement": "glycan array binding signal (z-score)", "setting": "[4]", "result": 0.409},
      {"measurement": "glycan array binding signal (z-score)", "setting": "[5]", "result": 0.682},
      {"measurement": "glycan array binding signal (z-score)", "setting": "[6]", "result": -0.203},
      {"measurement": "glycan array binding signal (z-score)", "setting": "[7]", "result": -0.263},
      {"measurement": "glycan array binding signal (z-score)", "setting": "[8]", "result": -0.267},
      {"measurement": "glycan array binding signal (z-score)", "setting": "[9]", "result": -0.27},
      {"measurement": "glycan array binding signal (z-score)", "setting": "[10]", "result": -0.25},
      {"measurement": "glycan array binding signal (z-score)", "setting": "[11]", "result": -0.255},
      {"measurement": "glycan array binding signal (z-score)", "setting": "[12]", "result": -0.263},
      {"measurement": "glycan array binding signal (z-score)", "setting": "[13]", "result": -0.268},
      {"measurement": "glycan array binding signal (z-score)", "setting": "[14]", "result": -0.273},
      {"measurement": "glycan array binding signal (z-score)", "setting": "[15]", "result": -0.27},
      {"measurement": "glycan array binding signal (z-score)", "setting": "[16]", "result": -0.268},
      {"measurement": "glycan array binding signal (z-score)", "setting": "[17]", "result": -0.259},
      {"measurement": "glycan array binding signal (z-score)", "setting": "[18]", "result": -0.268},
      {"measurement": "glycan array binding signal (z-score)", "setting": "[19]", "result": 1.11},
      {"measurement": "glycan array binding signal (z-score)", "setting": "[20]", "result": -0.267},
      {"measurement": "glycan array binding signal (z-score)", "setting": "Gal(b1-4)Glc", "result": -0.269},
      {"measurement": "glycan array binding signal (z-score)", "setting": "Gal(b1-4)Glc6S", "result": -0.269},
      {"measurement": "glycan array binding signal (z-score)", "setting": "Gal(b1-4)GlcNAc", "result": -0.27},
      {"measurement": "glycan array binding signal (z-score)", "setting": "[21]", "result": -0.262},
      {"measurement": "glycan array binding signal (z-score)", "setting": "[22]", "result": -0.268},
      {"measurement": "glycan array binding signal (z-score)", "setting": "[23]", "result": 0.403},
      {"measurement": "glycan array binding signal (z-score)", "setting": "[24]", "result": -0.269},
      {"measurement": "glycan array binding signal (z-score)", "setting": "[25]", "result": -0.267},
      {"measurement": "glycan array binding signal (z-score)", "setting": "[26]", "result": -0.269},
      {"measurement": "glycan array binding signal (z-score)", "setting": "[27]", "result": -0.267},
      {"measurement": "glycan array binding signal (z-score)", "setting": "[28]", "result": -0.266},
      {"measurement": "glycan array binding signal (z-score)", "setting": "[29]", "result": -0.271},
      {"measurement": "glycan array binding signal (z-score)", "setting": "[30]", "result": -0.21},
      {"measurement": "glycan array binding signal (z-score)", "setting": "[31]", "result": 1.1},
      {"measurement": "glycan array binding signal (z-score)", "setting": "[32]", "result": 2.47},
      {"measurement": "glycan array binding signal (z-score)", "setting": "[33]", "result": 1.53},
      {"measurement": "glycan array binding signal (z-score)", "setting": "[34]", "result": 3.99},
      {"measurement": "glycan array binding signal (z-score)", "setting": "[35]", "result": 5.22}
    ]}
  ]
}
